Test results from the supplement of paper PMC6828730.
Counter-ions that a name gives are not always drawn. The list shows a part of the results. Single values are uncertain, as repeats are few or missing.

test system: hiPSC-derived cardiomyocytes; test: time to death of most cells in well after compound addition (days); higher = less cardiotoxic; details: screen: 1; 10 µM

Compound	time to death of most cells in well
O=C(NC1CCNCC1)c1n[nH]cc1NC(=O)c1c(Cl)cccc1Cl	4.5
CS(=O)(=O)CCNCc1ccc(-c2ccc3ncnc(Nc4ccc(OCc5cccc(F)c5)c(Cl)c4)c3c2)o1	> 7
C=CC(=O)Nc1cccc(Sc2nc(Nc3ccc(N4CCN(C)CC4)cc3)ncc2Cl)c1	2
CNc1nc(Nc2cnn(C3CCN(C4COC4)CC3F)c2Cl)ncc1C(F)(F)F (stereo not given)	6.5
Cc1cc(Nc2cc(N3CCN(C)CC3)nc(Sc3ccc(NC(=O)C4CC4)cc3)n2)n[nH]1 [Tozasertib (VX-680, MK-0457)]	> 7
Cc1nc(Nc2cnn(C3CCNCC3)c2)nc2c1N(C)C(=O)c1cc3ccccc3cc1N2C	4
CNc1nc(-c2ccc3c(N)n[nH]c3c2)cc(N2C[C@@H](C(=O)NC3CCCCC3)CC[C@H]2C)n1	> 7
C=CCc1ccc(O)c(-c2ccc(O)c(CC=C)c2)c1 [Honokiol]	> 7
CCN1CCN(Cc2ccc(C(=O)Nc3ccc(C)c(Oc4ccc5c(c4)CC(=O)N5)c3)cc2C(F)(F)F)CC1	3
O=C1NC(=O)/C(=C/c2cccc(C(F)(F)F)c2)S1	> 7
CC(C)[C@H](CO)Nc1nc(Nc2cccc(Cl)c2)c2ncn(C(C)C)c2n1 [Purvalanol A]	> 7
CCN1CCN(C(=O)Cc2ccc(Nc3ncc(F)c(Nc4ccc(C(=O)Nc5ccccc5Cl)cc4)n3)cc2)CC1 [Aurora A Inhibitor I]	5
O=C1NC(=O)/C(=C/c2ccc(-c3ccc(F)cc3O)o2)S1	> 7
CCCS(=O)(=O)Nc1ccc(F)c(C(=O)c2c[nH]c3ncc(-c4ccc(Cl)cc4)cc23)c1F [Vemurafenib (PLX4032, RG7204)]	> 7
NC(=O)c1cccc(-c2cc(Nc3ccc(OC(F)(F)F)cc3)ncn2)c1	> 7
CCOC(=O)c1cnc2ccc(-c3cncc(NS(=O)(=O)c4ccccc4)c3)cn12	0
O=c1sn(-c2cccc3ccccc23)c(=O)n1Cc1ccccc1 [Tideglusib]	> 7
O=C1Nc2ccc(I)cc2C1=Cc1cc(Br)c(O)c(Br)c1	> 7

Compound	time to death of most cells in well
O=C(NCc1cccc(O)c1)Nc1nc(-c2ccncc2)cs1	2.5
COc1cccc(-c2cc(=O)c3ccccc3o2)c1N	6
Cc1c(Cn2c(C)nc3c(C(=O)O)cc(N4CCOCC4)cc32)cccc1C(F)(F)F	> 7
Cc1cnc(NC(=O)Nc2cc(Br)c(C)cc2OC[C@@H]2CNCCO2)cn1	> 7
O=C(Nc1ccc(OC(F)(F)F)cc1)c1sccc1NCc1ccnc2ccccc12	1.5
C[S+]([O-])c1ccc(-c2nc(-c3ccc(F)cc3)c(-c3ccncc3)[nH]2)cc1 (stereo not given)	> 7
CN1CC[C@@H](c2c(O)cc(O)c3c(=O)cc(-c4ccccc4Cl)oc23)[C@@H]1CO	1.5
CC[C@@](C)(Nc1ccnc(-c2c[nH]c3ncccc23)n1)C(=O)NCC(F)(F)F [Decernotinib (VX-509)]	6.5
Cc1ccc(NC(=O)c2ccc(CN3CCN(C)CC3)cc2)cc1Nc1nccc(-c2cccnc2)n1 [Imatinib Mesylate (STI571)]	> 7
CCn1c(N)c(C(=O)NC)c(=O)c2ccc(C#CC(C)(O)COC)nc21 (stereo not given)	> 7
Cc1ccc(NC(=O)c2cccc(C(C)(C)C#N)c2)cc1Nc1ccc2ncn(C)c(=O)c2c1	> 7
O=C(c1ccc(F)c(F)c1Nc1ccc(I)cc1F)N1CC(O)([C@@H]2CCCCN2)C1 [Cobimetinib (GDC-0973, RG7420)]	3.5
COCCOc1ccc2c(c1)ncn2-c1ccc2cccc(N3CCC(N)CC3)c2n1	> 7
Cc1cc(C)c(/C=C2\C(=O)Nc3ccccc32)[nH]1 [Semaxanib (SU5416)]	5
CN1CCN(c2ccc3nc(-c4c(N)c5c(F)cccc5[nH]c4=O)[nH]c3c2)CC1 [Dovitinib (TKI-258, CHIR-258)]	> 7
COc1cc(C(=O)NC2CCN(C)CC2)ccc1Nc1ncc2c(n1)N(C1CCCC1)CC(F)(F)C(=O)N2C	5.5
Cc1nc(NC(=O)N2CCC[C@H]2C(N)=O)sc1-c1csc(C(C)(C)C)n1	> 7
